# Assay results taken from the supplement of paper PMC8728848.
# The list shows a part of the results.
# B1: CBM32-1 (Clostridium perfringens) (protein)
# chain: MGSSHHHHHHSSGLVPRGSHMASGVEITEGVTVTAKGNTEGNTADLAIDGDLSTYWESSNDYKWIEVDLGGIYELSKIEIFNKDEAVYKYNIYASEDGENFNKIAYKNNDNVSDSNGNVHTIDNVRAGKIRIDVVQNSNSDRVNIAEINVFG
# Legend:
# Assay in all cases: glycan array binding signal (z-score within array); higher = stronger binding
# Conditions in all cases: glycan notation: IUPAC condensed, linker removed
# [1] = target: Fuc(a1-3)[GalNAc(b1-4)]GlcNAc
# Outline: (§1)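 Columns mapping to the same glycan were averaged after glycan names were converted to IUPAC-condensed notation. The data come from 3228 arrays in the Consortium for Functional Glycomics database, limited to those with an available protein sequence. Binding is reported as a within-array Z-score averaged across arrays of one protein sequence and across linkers.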
# Fuc(a1-4)GlcNAc = target: Fuc(a1-4)GlcNAc
# Outline: as §1
# Fuc(b1-3)GlcNAc = target: Fuc(b1-3)GlcNAc
# Outline: as §1
# Gal(a1-2)Gal = target: Gal(a1-2)Gal
# Outline: as §1
# Gal(a1-3)Gal = target: Gal(a1-3)Gal
# Outline: as §1
# Gal(a1-3)Gal(b1-3)GlcNAc = target: Gal(a1-3)Gal(b1-3)GlcNAc
# Outline: as §1
# Gal(a1-3)Gal(b1-4)Glc = target: Gal(a1-3)Gal(b1-4)Glc
# Outline: as §1
# Gal(a1-3)Gal(b1-4)GlcNAc = target: Gal(a1-3)Gal(b1-4)GlcNAc
# Outline: as §1
# [2] = target: Gal(a1-3)Gal(b1-4)[Fuc(a1-3)]GlcNAc
# Outline: as §1
# Gal(a1-3)GalNAc = target: Gal(a1-3)GalNAc
# Outline: as §1
# [3] = target: Gal(a1-3)[Gal(a1-4)]Gal(b1-4)GlcNAc
# Outline: as §1
# Gal(a1-4)Gal(b1-4)Glc = target: Gal(a1-4)Gal(b1-4)Glc
# Outline: as §1
# Gal(a1-4)Gal(b1-4)GlcNAc = target: Gal(a1-4)Gal(b1-4)GlcNAc
# Outline: as §1
# Gal(a1-4)GlcNAc = target: Gal(a1-4)GlcNAc
# Outline: as §1
# Gal(a1-6)Glc = target: Gal(a1-6)Glc
# Outline: as §1
# Gal(b1-2)Gal = target: Gal(b1-2)Gal
# Outline: as §1
# Gal(b1-3)Gal = target: Gal(b1-3)Gal
# Outline: as §1
# Gal(b1-3)Gal(b1-4)GlcNAc = target: Gal(b1-3)Gal(b1-4)GlcNAc
# Outline: as §1
# Gal(b1-3)GalNAc = target: Gal(b1-3)GalNAc
# Outline: as §1
# [4] = target: Gal(b1-3)GalNAc(b1-3)Gal(a1-4)Gal(b1-4)Glc
# Outline: as §1
# [5] = target: Gal(b1-3)GalNAc(b1-4)Gal(b1-4)Glc
# Outline: as §1
# [6] = target: Gal(b1-3)GalNAc(b1-4)[Neu5Ac(a2-3)]Gal(b1-4)Glc
# Outline: as §1
# Gal(b1-3)GlcNAc = target: Gal(b1-3)GlcNAc
# Outline: as §1
# [7] = target: Gal(b1-3)GlcNAc(b1-2)Man(a1-3)[Gal(b1-3)GlcNAc(b1-2)Man(a1-6)]Man(b1-4)GlcNAc(b1-4)GlcNAc
# Outline: as §1
# [8] = target: Gal(b1-3)GlcNAc(b1-3)Gal(b1-3)GlcNAc
# Outline: as §1
# [9] = target: Gal(b1-3)GlcNAc(b1-3)Gal(b1-4)Glc
# Outline: as §1
# [10] = target: Gal(b1-3)GlcNAc(b1-3)Gal(b1-4)GlcNAc
# Outline: as §1
# [11] = target: Gal(b1-3)[Fuc(a1-4)]GlcNAc
# Outline: as §1
# [12] = target: Gal(b1-3)[Fuc(a1-4)]GlcNAc(b1-3)Gal(b1-3)[Fuc(a1-4)]GlcNAc
# Outline: as §1
# [13] = target: Gal(b1-3)[Fuc(a1-4)]GlcNAc(b1-3)Gal(b1-4)GlcNAc
# Outline: as §1
# [14] = target: Gal(b1-3)[Fuc(a1-4)]GlcNAc(b1-3)Gal(b1-4)[Fuc(a1-3)]GlcNAc
# Outline: as §1
# [15] = target: Gal(b1-3)[GlcNAc(b1-6)]GalNAc
# Outline: as §1
# [16] = target: Gal(b1-3)[Neu5Ac(a2-6)]GalNAc
# Outline: as §1
# [17] = target: Gal(b1-3)[Neu5Ac(a2-6)]GlcNAc(b1-6)Gal(b1-4)Glc
# Outline: as §1
# [18] = target: Gal(b1-3)[Neu5Ac(b2-6)]GalNAc
# Outline: as §1
# [19] = target: Gal(b1-4)GalNAc(a1-3)[Fuc(a1-2)]Gal(b1-4)GlcNAc
# Outline: as §1
# [20] = target: Gal(b1-4)GalNAc(b1-3)[Fuc(a1-2)]Gal(b1-4)GlcNAc
# Outline: as §1
# Gal(b1-4)Glc = target: Gal(b1-4)Glc
# Outline: as §1
# Gal(b1-4)Glc6S = target: Gal(b1-4)Glc6S
# Outline: as §1
# Gal(b1-4)GlcNAc = target: Gal(b1-4)GlcNAc
# Outline: as §1
# [21] = target: Gal(b1-4)GlcNAc(a1-6)Gal(b1-4)GlcNAc
# Outline: as §1
# [22] = target: Gal(b1-4)GlcNAc(b1-2)Man(a1-3)[Gal(b1-4)GlcNAc(b1-2)Man(a1-6)]Man(b1-4)GlcNAc(b1-4)GlcNAc
# Outline: as §1
# [23] = target: Gal(b1-4)GlcNAc(b1-3)Gal(b1-3)GlcNAc
# Outline: as §1
# [24] = target: Gal(b1-4)GlcNAc(b1-3)Gal(b1-4)Glc
# Outline: as §1
# [25] = target: Gal(b1-4)GlcNAc(b1-3)Gal(b1-4)GlcNAc
# Outline: as §1
binder,measurement,setting,value
B1,glycan array binding signal (z-score),[1],-0.154
same,glycan array binding signal (z-score),Fuc(a1-4)GlcNAc,-0.027
same,glycan array binding signal (z-score),Fuc(b1-3)GlcNAc,0.161
same,glycan array binding signal (z-score),Gal(a1-2)Gal,-0.565
same,glycan array binding signal (z-score),Gal(a1-3)Gal,-0.265
same,glycan array binding signal (z-score),Gal(a1-3)Gal(b1-3)GlcNAc,-0.526
same,glycan array binding signal (z-score),Gal(a1-3)Gal(b1-4)Glc,0.175
same,glycan array binding signal (z-score),Gal(a1-3)Gal(b1-4)GlcNAc,-0.092
same,glycan array binding signal (z-score),[2],0.312
same,glycan array binding signal (z-score),Gal(a1-3)GalNAc,0.851
same,glycan array binding signal (z-score),[3],-0.835
same,glycan array binding signal (z-score),Gal(a1-4)Gal(b1-4)Glc,-0.237
same,glycan array binding signal (z-score),Gal(a1-4)Gal(b1-4)GlcNAc,-0.181
same,glycan array binding signal (z-score),Gal(a1-4)GlcNAc,-0.924
same,glycan array binding signal (z-score),Gal(a1-6)Glc,-0.078
same,glycan array binding signal (z-score),Gal(b1-2)Gal,0.823
same,glycan array binding signal (z-score),Gal(b1-3)Gal,-0.678
same,glycan array binding signal (z-score),Gal(b1-3)Gal(b1-4)GlcNAc,-0.945
same,glycan array binding signal (z-score),Gal(b1-3)GalNAc,-0.444
same,glycan array binding signal (z-score),[4],0.817
same,glycan array binding signal (z-score),[5],-0.14
same,glycan array binding signal (z-score),[6],-0.651
same,glycan array binding signal (z-score),Gal(b1-3)GlcNAc,-0.333
same,glycan array binding signal (z-score),[7],-0.483
same,glycan array binding signal (z-score),[8],-0.209
same,glycan array binding signal (z-score),[9],-0.662
same,glycan array binding signal (z-score),[10],-0.427
same,glycan array binding signal (z-score),[11],-0.22
same,glycan array binding signal (z-score),[12],-0.399
same,glycan array binding signal (z-score),[13],-0.163
same,glycan array binding signal (z-score),[14],-0.252
same,glycan array binding signal (z-score),[15],-0.458
same,glycan array binding signal (z-score),[16],-0.587
same,glycan array binding signal (z-score),[17],-0.836
same,glycan array binding signal (z-score),[18],-0.177
same,glycan array binding signal (z-score),[19],-0.671
same,glycan array binding signal (z-score),[20],0.844
same,glycan array binding signal (z-score),Gal(b1-4)Glc,-0.18
same,glycan array binding signal (z-score),Gal(b1-4)Glc6S,-0.266
same,glycan array binding signal (z-score),Gal(b1-4)GlcNAc,-0.775
same,glycan array binding signal (z-score),[21],-0.478
same,glycan array binding signal (z-score),[22],0.131
same,glycan array binding signal (z-score),[23],-0.087
same,glycan array binding signal (z-score),[24],-0.585
same,glycan array binding signal (z-score),[25],-0.492
